The record followed here is PMC5700166.

Only a part is listed here, and it is no random draw. For some assays here: The list includes weakly bound sequences.

The target in one assay is T1, GST-Ap-NF-kB RHD (UniProt A0A913YAJ5).
T1 sequence: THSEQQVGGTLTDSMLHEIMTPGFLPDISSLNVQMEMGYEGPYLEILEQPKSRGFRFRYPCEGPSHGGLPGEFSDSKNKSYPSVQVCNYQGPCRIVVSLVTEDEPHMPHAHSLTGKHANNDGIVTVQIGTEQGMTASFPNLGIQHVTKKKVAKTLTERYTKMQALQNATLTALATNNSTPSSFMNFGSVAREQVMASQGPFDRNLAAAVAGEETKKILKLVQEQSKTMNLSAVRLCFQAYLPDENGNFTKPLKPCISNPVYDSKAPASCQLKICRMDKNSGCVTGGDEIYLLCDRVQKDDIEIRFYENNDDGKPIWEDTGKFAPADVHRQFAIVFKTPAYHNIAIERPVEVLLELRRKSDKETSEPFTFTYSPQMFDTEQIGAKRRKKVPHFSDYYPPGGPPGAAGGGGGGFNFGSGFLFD
Briefly: protein-binding microarray (PBM). The note with it: PBM: ~300 nM protein, 6 mM HEPES pH 7.8, 80 mM KCl, 0.5 mM EDTA, 0.5 mM EGTA, 6% glycerol, 35 ng/ul poly-dIdC, 1% milk, 1 h, room temperature; high values mean tight binding; double strand, one strand shown.
“CCGATTAACATCACCACCCCCCCTGATGTTAATCGGGTCTTGATTCGCTTGACGCTGCTG” gave a binding signal of 4.06 z-score.

Sequence “CCGATTAACATCACTTTGGGAAATGATGTTAATCGGGTCTTGATTCGCTTGACGCTGCTG” yielded a binding signal of 0.407 z-score.

“CCGATTAACATCAGGGACGGAAATGATGTTAATCGGGTCTTGATTCGCTTGACGCTGCTG”: the binding signal turned out to be 2.7 z-score.

In the case of “CCGATTAACATCAAGGTTCCCCCTGATGTTAATCGGGTCTTGATTCGCTTGACGCTGCTG”, the binding signal stood at 8.03 z-score.

Take “CCGATTAACATCAGAACATCCCCTGATGTTAATCGGGTCTTGATTCGCTTGACGCTGCTG”: the binding signal is 6.05 z-score.

In turn, “CCGATTAACATCAGTTTGGGAAATGATGTTAATCGGGTCTTGATTCGCTTGACGCTGCTG” showed a binding signal of 0.864 z-score.

The sequence “CCGATTAACATCAGGGGGTAGAATGATGTTAATCGGGTCTTGATTCGCTTGACGCTGCTG” showed a binding signal of 4.45 z-score.

On to “CCGATTAACATCAGAATTCCCGCTGATGTTAATCGGGTCTTGATTCGCTTGACGCTGCTG”, for which the binding signal was found to be 3.59 z-score.

The sequence “CCGATTAACATCAATTCCCCAGGTGATGTTAATCGGGTCTTGATTCGCTTGACGCTGCTG” returned a binding signal of 5.33 z-score.

“CCGATTAACATCACAGAAACCCCTGATGTTAATCGGGTCTTGATTCGCTTGACGCTGCTG”: the binding signal is 5.66 z-score.

Regarding “CCGATTAACATCACCAATTTCCCTGATGTTAATCGGGTCTTGATTCGCTTGACGCTGCTG”, the binding signal stood at 3.3 z-score.

Consider “CCGATTAACATCACTCCCTAAAATGATGTTAATCGGGTCTTGATTCGCTTGACGCTGCTG”, for which the binding signal came out at 1.35 z-score.

As to “CCGATTAACATCACAACACCCCCTGATGTTAATCGGGTCTTGATTCGCTTGACGCTGCTG”, the binding signal was determined as 5.03 z-score.

Another assay deals with T2, GST-Nv-NF-kB (Cys allele) (UniProt E5G601).
T2 sequence: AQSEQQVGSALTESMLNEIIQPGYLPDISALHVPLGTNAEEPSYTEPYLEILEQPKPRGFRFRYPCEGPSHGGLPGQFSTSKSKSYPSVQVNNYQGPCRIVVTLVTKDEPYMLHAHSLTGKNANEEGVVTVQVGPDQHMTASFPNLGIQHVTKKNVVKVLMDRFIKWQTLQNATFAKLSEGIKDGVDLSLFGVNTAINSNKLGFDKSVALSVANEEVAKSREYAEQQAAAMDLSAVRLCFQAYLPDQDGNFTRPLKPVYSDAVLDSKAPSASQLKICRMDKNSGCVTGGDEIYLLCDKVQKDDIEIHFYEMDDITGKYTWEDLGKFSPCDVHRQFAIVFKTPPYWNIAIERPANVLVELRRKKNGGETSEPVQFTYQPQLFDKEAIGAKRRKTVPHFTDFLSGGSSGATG
Briefly: protein-binding microarray (PBM). The settings on record: PBM: ~300 nM protein, 6 mM HEPES pH 7.8, 80 mM KCl, 0.5 mM EDTA, 0.5 mM EGTA, 6% glycerol, 35 ng/ul poly-dIdC, 1% milk, 1 h, room temperature; high values mean tight binding; double strand, one strand shown.
Consider “CCGATTAACATCAAACCCCCCCTTGATGTTAATCGGGTCTTGATTCGCTTGACGCTGCTG”, for which the binding signal came to 4.97 z-score.

Turning to “CCGATTAACATCAAAAACTCCCTTGATGTTAATCGGGTCTTGATTCGCTTGACGCTGCTG”, the binding signal came to 7.94 z-score.

Consider “CCGATTAACATCAGGGGGAACAATGATGTTAATCGGGTCTTGATTCGCTTGACGCTGCTG”, for which the binding signal was found to be 5.75 z-score.

As for “CCGATTAACATCAGGGGGTAAGATGATGTTAATCGGGTCTTGATTCGCTTGACGCTGCTG”, the binding signal worked out at 3.13 z-score.

Sequence “CCGATTAACATCACTTCCCCCCATGATGTTAATCGGGTCTTGATTCGCTTGACGCTGCTG” displayed a binding signal of 4.18 z-score.

The sequence “CCGATTAACATCAACGATTCCCCTGATGTTAATCGGGTCTTGATTCGCTTGACGCTGCTG” showed a binding signal of 6.55 z-score.

“CCGATTAACATCAGACTTCCCCCTGATGTTAATCGGGTCTTGATTCGCTTGACGCTGCTG” registered a binding signal of 7.38 z-score.

The sequence “CCGATTAACATCAAGCATTCCCCTGATGTTAATCGGGTCTTGATTCGCTTGACGCTGCTG” gave a binding signal of 7.73 z-score.

On to “CCGATTAACATCAGGATTGCCCCTGATGTTAATCGGGTCTTGATTCGCTTGACGCTGCTG”, for which the binding signal worked out at 4.26 z-score.

In turn, “CCGATTAACATCAGGACATTCCCTGATGTTAATCGGGTCTTGATTCGCTTGACGCTGCTG” displayed a binding signal of 4.82 z-score.

“CCGATTAACATCAGATAATCCCCTGATGTTAATCGGGTCTTGATTCGCTTGACGCTGCTG”: the binding signal came out at 8.93 z-score.

“CCGATTAACATCAAGGAATACCCTGATGTTAATCGGGTCTTGATTCGCTTGACGCTGCTG” displayed a binding signal of 5.51 z-score.

On to “CCGATTAACATCAGTAATTCCCATGATGTTAATCGGGTCTTGATTCGCTTGACGCTGCTG”, for which the binding signal came to 4.3 z-score.

“CCGATTAACATCAAGGGAAAAAATGATGTTAATCGGGTCTTGATTCGCTTGACGCTGCTG”: the binding signal came out at 5.84 z-score.

In turn, “CCGATTAACATCAGGGAATGCACTGATGTTAATCGGGTCTTGATTCGCTTGACGCTGCTG” displayed a binding signal of 3.18 z-score.

On to “CCGATTAACATCAAACCTTCCCCTGATGTTAATCGGGTCTTGATTCGCTTGACGCTGCTG”, for which the binding signal worked out at 5.62 z-score.

“CCGATTAACATCAGGGGAGAATATGATGTTAATCGGGTCTTGATTCGCTTGACGCTGCTG” came in with a binding signal of 5.42 z-score.

“CCGATTAACATCAAGTTTTTCCCTGATGTTAATCGGGTCTTGATTCGCTTGACGCTGCTG” gave a binding signal of 5.43 z-score.

For the sequence “CCGATTAACATCAAGGGGGTATCTGATGTTAATCGGGTCTTGATTCGCTTGACGCTGCTG”, the binding signal came out at 4.44 z-score.

In the case of “CCGATTAACATCAGGGGGATTACTGATGTTAATCGGGTCTTGATTCGCTTGACGCTGCTG”, the binding signal amounted to 7.64 z-score.

In turn, “CCGATTAACATCAGGGGACTCACTGATGTTAATCGGGTCTTGATTCGCTTGACGCTGCTG” gave a binding signal of 4.13 z-score.

Take “CCGATTAACATCAAAGATTCCCCTGATGTTAATCGGGTCTTGATTCGCTTGACGCTGCTG”: the binding signal is 10.5 z-score.

For “CCGATTAACATCAGGACAGCCCCTGATGTTAATCGGGTCTTGATTCGCTTGACGCTGCTG”, the binding signal was 5.09 z-score.

“CCGATTAACATCAGGGAAAGAACTGATGTTAATCGGGTCTTGATTCGCTTGACGCTGCTG” came in with a binding signal of 3.99 z-score.

As to “CCGATTAACATCAAATAACCCCCTGATGTTAATCGGGTCTTGATTCGCTTGACGCTGCTG”, the binding signal was determined as 7.1 z-score.

With “CCGATTAACATCAGGCATTTCCCTGATGTTAATCGGGTCTTGATTCGCTTGACGCTGCTG”, the binding signal turned out to be 5.12 z-score.

The sequence “CCGATTAACATCAGTAAATCCCATGATGTTAATCGGGTCTTGATTCGCTTGACGCTGCTG” had a binding signal of 1.09 z-score.

The target in another assay is T3, GST-Dm-Relish (UniProt Q94527).
T3 sequence: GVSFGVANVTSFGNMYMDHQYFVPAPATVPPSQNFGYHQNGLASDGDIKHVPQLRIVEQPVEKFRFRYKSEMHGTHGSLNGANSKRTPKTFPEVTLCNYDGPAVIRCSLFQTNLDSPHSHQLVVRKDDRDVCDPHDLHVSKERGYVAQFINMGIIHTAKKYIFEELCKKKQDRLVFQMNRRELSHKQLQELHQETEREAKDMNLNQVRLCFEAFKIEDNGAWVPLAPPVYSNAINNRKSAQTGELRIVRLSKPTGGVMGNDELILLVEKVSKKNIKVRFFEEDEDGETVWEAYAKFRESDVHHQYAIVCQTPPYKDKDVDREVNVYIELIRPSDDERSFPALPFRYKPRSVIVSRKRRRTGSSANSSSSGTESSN
Briefly: protein-binding microarray (PBM). The settings on record: PBM: ~300 nM protein, 6 mM HEPES pH 7.8, 80 mM KCl, 0.5 mM EDTA, 0.5 mM EGTA, 6% glycerol, 35 ng/ul poly-dIdC, 1% milk, 1 h, room temperature; Ap Aiptasia and Nv Nematostella (sea anemones) / Co Capsaspora / Aq Amphimedon (sponge) / Dm Drosophila / Hu human; RHD is the Rel homology domain; high values mean tight binding; most listed sequences are background and not binding sites; double strand, one strand shown.
With “CCGATTAACATCACCACCCCCCCTGATGTTAATCGGGTCTTGATTCGCTTGACGCTGCTG”, the binding signal stood at 4.58 z-score.

For the sequence “CCGATTAACATCACTTTGGGAAATGATGTTAATCGGGTCTTGATTCGCTTGACGCTGCTG”, the binding signal worked out at 0.742 z-score.

With “CCGATTAACATCAGGGACGGAAATGATGTTAATCGGGTCTTGATTCGCTTGACGCTGCTG”, the binding signal was determined as 0.258 z-score.

Turning to “CCGATTAACATCAAGGTTCCCCCTGATGTTAATCGGGTCTTGATTCGCTTGACGCTGCTG”, the binding signal was found to be 5.67 z-score.

Turning to “CCGATTAACATCAGAACATCCCCTGATGTTAATCGGGTCTTGATTCGCTTGACGCTGCTG”, the binding signal is 6.69 z-score.

For “CCGATTAACATCAGTTTGGGAAATGATGTTAATCGGGTCTTGATTCGCTTGACGCTGCTG”, the binding signal amounted to 0.71 z-score.

In turn, “CCGATTAACATCAGGGGGTAGAATGATGTTAATCGGGTCTTGATTCGCTTGACGCTGCTG” yielded a binding signal of 2.13 z-score.

As to “CCGATTAACATCAGAATTCCCGCTGATGTTAATCGGGTCTTGATTCGCTTGACGCTGCTG”, the binding signal was found to be 3.89 z-score.

For “CCGATTAACATCAATTCCCCAGGTGATGTTAATCGGGTCTTGATTCGCTTGACGCTGCTG”, the binding signal was found to be 2.37 z-score.

Turning to “CCGATTAACATCACAGAAACCCCTGATGTTAATCGGGTCTTGATTCGCTTGACGCTGCTG”, the binding signal is 6.6 z-score.

On to “CCGATTAACATCACCAATTTCCCTGATGTTAATCGGGTCTTGATTCGCTTGACGCTGCTG”, for which the binding signal was found to be 1.84 z-score.

Regarding “CCGATTAACATCACTCCCTAAAATGATGTTAATCGGGTCTTGATTCGCTTGACGCTGCTG”, the binding signal was 0.645 z-score.

Sequence “CCGATTAACATCACAACACCCCCTGATGTTAATCGGGTCTTGATTCGCTTGACGCTGCTG” showed a binding signal of 4.4 z-score.
